“And” between values parts separate entries of the source, which are not always exact repeats. Identical values can stand only once. The campaign covered roughly 280,000 compounds. About 1,100 (0.39%) were called active. Inconclusive results, whose numbers are uncertain, are shown with a selection of clear calls. Calls come from the whole dose curve; as a rule, active = well fitted inhibition curve with a large enough effect; inconclusive = small, poorly fitted or top-dose-only effect, or effect the other way; inactive = flat fitted curve, though single readings scatter. No potency is given beside an inconclusive call; the fits are too rough.
These compounds were tested against Microtubule-associated protein tau (Homo sapiens) (UniProt P10636) (assay: qHTS for Inhibitors of Tau Fibril Formation, Fluorescence Polarization). Conditions: K18 P301L tau heparin fibrillization, Alexa594 FP, 6 h; series mostly up to 57.7 µM; activity, negative = inhibition: at the top concentration.
Sequence of UniProt P10636 (P10636 whole entry, looked up): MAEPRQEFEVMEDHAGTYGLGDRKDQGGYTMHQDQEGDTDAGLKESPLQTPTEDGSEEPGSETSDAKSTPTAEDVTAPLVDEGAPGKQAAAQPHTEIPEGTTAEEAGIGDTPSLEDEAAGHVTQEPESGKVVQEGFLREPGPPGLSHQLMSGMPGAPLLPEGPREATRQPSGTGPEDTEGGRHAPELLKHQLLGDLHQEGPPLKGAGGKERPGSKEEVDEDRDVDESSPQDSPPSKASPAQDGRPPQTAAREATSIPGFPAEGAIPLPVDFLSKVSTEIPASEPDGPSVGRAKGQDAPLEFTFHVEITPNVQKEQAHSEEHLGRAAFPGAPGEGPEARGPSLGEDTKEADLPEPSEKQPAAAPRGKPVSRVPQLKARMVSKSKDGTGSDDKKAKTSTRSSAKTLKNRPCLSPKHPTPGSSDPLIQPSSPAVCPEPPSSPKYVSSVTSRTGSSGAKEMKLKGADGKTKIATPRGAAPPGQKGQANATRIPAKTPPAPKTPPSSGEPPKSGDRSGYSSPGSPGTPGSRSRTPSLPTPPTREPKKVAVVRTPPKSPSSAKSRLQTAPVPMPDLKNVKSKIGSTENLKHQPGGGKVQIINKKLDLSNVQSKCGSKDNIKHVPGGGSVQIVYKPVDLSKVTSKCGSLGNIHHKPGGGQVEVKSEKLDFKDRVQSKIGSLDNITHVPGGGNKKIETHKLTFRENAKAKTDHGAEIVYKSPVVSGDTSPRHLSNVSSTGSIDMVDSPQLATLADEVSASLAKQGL
Outline: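 Quantitative HTS format: compounds meet 15 uM recombinant K18 P301L tau and Alexa 594-tau tracer in 100 mM sodium acetate pH 7; 20 uM heparin triggers fibrillization at 37 C over 6 hr; FP gives the signal.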
% is set by controls: 0 for no effect and ±100 for the full control effect; potency is the fitted concentration of half-maximal effect; tags give direction and shape of the fitted curve.
Note: nearly all actives have a fitted effect of over 55% in size.

Row | SMILES | Potency | activity, negative = inhibition
1 | Cc1cc(=O)[nH]c2c(C)c(Cl)ccc12 | inconclusive [inhibitor, full curve, poor fit] | 
2 | Oc1c(CN2CCCCC2)cc(COCc2ccccc2)c2cccnc12 |  | inactive: 8.94%
3 | CC1=C(C(=O)Nc2ccccc2)C(c2ccc(O)cc2)n2nc(-c3ccc(Cl)cc3)nc2N1 (stereo unspecified) | inconclusive [inhibitor, full curve, poor fit] | 
4 | Cc1ccsc1/C=N/NC(=O)c1ccc(Cn2cc(Br)cn2)o1 | inconclusive [inhibitor, partial curve, poor fit] | 
5 | CCCN1C(=O)C(Cc2nc3ccccc3c(=O)n2CC)c2cc(Br)ccc21 (stereo unspecified) |  | inactive: 6.89%
6 | COc1cc2[nH]c(=S)nc(NC3CCCC3)c2cc1OC | inconclusive [inhibitor, partial curve] | 
7 | Cc1oc(-c2cccc(Br)c2)nc1Cn1c(SCc2cccc(F)c2)nc2cccnc21 |  | inactive: 10.5%
8 | S=C(NCCc1ccccc1)Nc1ccc(Cl)cc1 | inconclusive [inhibitor, single point] | 
9 | Cc1ccc(SCC(=O)NCC(C)C)cc1 |  | inactive: 3.49%
10 | CCCCN(C)CCNC(=O)c1cc(-c2ccc(Cl)s2)nc2ccccc12 | inconclusive [inhibitor, single point] | 
11 | O=C(NCc1ccc2[nH]c3c(c2c1)CCCC3)c1ccc(S(=O)(=O)N2CCCCC2)cc1 | inconclusive [activator, full curve, poor fit] | 
12 | Cc1cccc(NS(=O)(=O)c2ccc3[nH]c(=O)cc(C(=O)OC(C)C(=O)Nc4ccc([N+](=O)[O-])cc4)c3c2)c1 (stereo unspecified) | inconclusive [inhibitor, full curve, poor fit] | 
13 | CC(=O)Nc1ccc(NC(=O)c2ncoc2-c2ccco2)cc1 |  | inactive: 1.78%
14 | CCOc1ccc(C2N(c3ccc(OC)cc3)C(=O)C3CCCN32)cc1OC (stereo unspecified) |  | inactive: -0.464%
15 | O=Cc1sc(=O)n(Cc2cccc(C(=O)O)c2)c1Cl | active: 10 µM | 
16 | Cc1ccc(-c2nc3scc(CCNS(=O)(=O)c4ccc(Oc5ccccc5)cc4)n3n2)cc1 | inconclusive [inhibitor, full curve, poor fit] | 
17 | COc1cccc(OC)c1OCCCCn1cnc2ccccc2c1=O |  | inactive: -9.22%
18 | CCc1ccccc1NC(=O)Nc1ccc2snnc2c1 | inconclusive [inhibitor, single point] | 
19 | Cc1nc(NC(=O)c2ccccc2)sc1-c1csc(Nc2cccc(F)c2)n1 | inconclusive [activator, single point] | 
20 | O=C(CC1C(=O)NCCN1Cc1ccoc1)NCCc1ccc(Cl)cc1 (stereo unspecified) | inconclusive [inhibitor, partial curve, poor fit] | 
21 | NC(N)=NC(N)=Nc1cccc(Cl)c1 | inconclusive [inhibitor, partial curve, poor fit] | 
22 | Cc1cccc(CC(=O)N2CC(=O)Nc3ccc(F)cc3C2c2ccccc2)c1 (stereo unspecified) |  | inactive: 3.28%

Row | SMILES | Potency | activity, negative = inhibition
23 | CCOC(=O)c1sc(/N=C/N(C)C)nc1C |  | inactive: -3.14%
24 | O/N=C(\c1ccc(Cl)cc1)c1cc2ccccc2o1 | inconclusive [inhibitor, single point] | 
25 | Cc1ccc(C(=O)Oc2cccc(NC(=O)c3ccccc3)c2)cc1C | inconclusive [inhibitor, partial curve] | 
26 | C[C@@](N)(Cc1ccc(O)c(O)c1)C(=O)O | inconclusive [inhibitor, full curve] | 
27 | CCc1ccc(NS(=O)(=O)c2ccc3[nH]c4c(c3c2)CCCCCC4)cc1 | inconclusive [activator, single point] | 
28 | CCSC1=N/C(=C\c2ccc(-c3ccccc3[N+](=O)[O-])o2)C(=O)S1 | inconclusive [inhibitor, partial curve] | 
29 | O=C(O)c1cccc(NS(=O)(=O)c2ccc3nnn(O)c3c2)c1 |  | inactive: 7.08%
30 | COc1ccccc1NC(=O)c1cccnc1 | inconclusive [inhibitor, single point] | 
31 | C/C(=N\N=C(/N)SC1CC(=O)N(c2ccc(Cl)c(Cl)c2)C1=O)c1cccs1 (stereo unspecified) | inconclusive [inhibitor, partial curve] | 
32 | CCOc1ccccc1NC(=O)CCn1cccc1 |  | inactive: 0.0772%
33 | CO[C@@]1(NC(=O)Cc2cccs2)C(=O)N2C(C(=O)O)=C(COC(N)=O)CSC21 (stereo partly specified) | inconclusive [inhibitor, partial curve] | 
34 | COc1ccc(OC)c(CNC(=O)c2cc(=O)[nH]c3ccc(S(=O)(=O)N4CCCCC4C)cc23)c1 (stereo unspecified) |  | inactive: -2.96%
35 | COc1ccc(-c2nc3cc(NC(=O)COc4ccc(F)cc4)ccc3o2)cc1 | inconclusive [inhibitor, partial curve] | 
36 | O=C(CC1(O)C(=O)N(Cc2ccccc2)c2ccccc21)c1ccncc1 (stereo unspecified) |  | inactive: -5.32%
37 | O=S(=O)(Nc1cccc(-c2cn3cccnc3n2)c1)c1ccc(-c2ccccc2)cc1 | inconclusive [inhibitor, partial curve] | 
38 | O=C(CSc1nnc(-c2cccnc2)o1)OC1CCCCC1 |  | inactive: 10.2%
39 | CCOc1ccc(-c2cc(C)n3nc(C(=O)Nc4cc(Cl)ccc4O)cc3n2)cc1 | inconclusive [activator, partial curve, poor fit] | 
40 | COc1cccc(NC(=O)Cn2c(=O)n(Cc3nc(-c4ccccc4)no3)c(=O)c3ccccc32)c1 | inconclusive [inhibitor, full curve] | 
41 | COc1ccccc1/C=C(\C#N)c1nc(-c2cc3ccccc3oc2=O)cs1 | inconclusive [inhibitor, partial curve, poor fit] | 
42 | O=[N+]([O-])c1cc(C(F)(F)F)ccc1N/N=C/c1cc2ccccc2nc1Cl | inconclusive [activator, partial curve] | 
43 | CCN(C(=O)Cc1cccs1)c1nnc(-c2cccnc2)s1 | inconclusive [inhibitor, single point] | 
44 | COC/C=C/C1=CC2=CC(=O)C(C)(OC(=O)c3cnc4ccccc4n3)C(=O)C2=CN1Cc1ccccc1 (stereo unspecified) | inconclusive [inhibitor, single point] | 

Row | SMILES | Potency | activity, negative = inhibition
45 | CCOP(=O)(c1ccc(N(C)C)cc1)C(O)c1ccncc1 (stereo unspecified) | inconclusive [inhibitor, single point] | 
46 | C[C@H](NC(=O)c1[nH]cnc1C(=O)Nc1ccc(CNC(=O)OC(C)(C)C)cc1)C(=O)OC(C)(C)C | inconclusive [inhibitor, partial curve, poor fit] | 
47 | COc1cccc(N2CCN(C(=O)CN3CCSc4ccc(S(=O)(=O)N(C)C)cc43)CC2)c1 |  | inactive: -0.404%
48 | CC(OC(=O)/C=C/c1ccco1)C(=O)Nc1cccc([N+](=O)[O-])c1 (stereo unspecified) |  | inactive: 3.91%
49 | COc1cccc(CNC(=O)Cn2c(=O)n3nc(-c4cccc(C)c4)nc3c3ccccc32)c1 | inconclusive [inhibitor, single point] | 
50 | Cc1cc(C)cc(NS(=O)(=O)c2ccc(-c3cc(C)no3)cc2)c1 | inconclusive [inhibitor, single point] | 
51 | CCn1c(CNc2nc(-c3ccccc3)cs2)nnc1SCC(=O)NCc1ccco1 | inconclusive [inhibitor, partial curve] | 
52 | NC(=O)CSc1nc2scc(-c3ccco3)c2c(=O)n1-c1ccccc1 | inconclusive [inhibitor, single point] | 
53 | COc1ccc2c(c1OC)C(=O)O[C@H]2C1c2c(cc3c(c2OC)OCO3)CCN1C (stereo partly specified) | inconclusive [inhibitor, full curve, poor fit] | 
54 | O=C(CN1CCN(S(=O)(=O)c2ccc(F)cc2)CC1)c1ccc(O)c(O)c1 | inconclusive [inhibitor, single point] | 
55 | O=C(Nc1cccnc1Cl)c1ccc(=O)oc1 |  | inactive: 7.26%
56 | Cc1cc(C(=O)N/N=C/c2ccc(OCc3ccccc3)cc2)c(C)o1 | inconclusive [inhibitor, single point] | 
57 | CCOC(=O)c1ccc(NC(=O)Cc2coc3cc4c(cc23)CCC4)cc1 | inconclusive [inhibitor, partial curve] | 
58 | C/C(CCN1CCCc2nc(C)c(C)cc21)=N\O[C@@H](C)c1cn([C@H](CO)Cc2ccccc2)nn1 |  | inactive: 8.9% [at 11.6 µM] and inactive: 6.87% [at 11.6 µM]
59 | CCOc1cc(/C=N/NC(=O)c2ccc(CN3CCOCC3)cc2)ccc1OC |  | inactive: -0.813%
60 | CSc1ccc(CNC(=O)c2ccc3c(c2)N(C)C(=O)C2CCCCN32)cc1 (stereo unspecified) |  | inactive: 8.84%
61 | COc1ccc(CCN(C)CCCN2CCc3cc(OC)c(OC)cc3CC2=O)cc1OC | inconclusive [inhibitor, single point] | 
62 | CCN1C(=O)C(CC(=O)Nc2ccc(F)cc2)N(CCc2ccc(OC)cc2)C1=S (stereo unspecified) | inconclusive [inhibitor, partial curve] | 
63 | NC(=O)c1ccc[n+]([C@@H]2OC(COP(=O)([O-])OP(=O)(O)OCC3OC(n4cnc5c(N)ncnc54)C(OP(=O)(O)O)C3O)C(O)C2O)c1 (stereo partly specified) |  | inactive: -12.6%
64 | COc1ccc(NCc2nnc(SCC(=O)Nc3cccc(C)c3)o2)cc1 | inconclusive [activator, partial curve] | 
65 | Cc1ccc(NC(=O)CN2CC(C)SC2=NC2CCCCC2)cc1 (stereo unspecified) | inconclusive [activator, full curve, poor fit] | 
66 | Cc1cccc(-n2cnc3c(c2=O)c2nc4ccccc4nc2n3Cc2ccco2)c1 | inconclusive [inhibitor, single point] | 
